Measurements from the supplement of paper PMC3724861.
Some of the results follow.

tested on: T1, Caupolican (Caup) homeodomain DNA-binding domain; assay: PBM E-score (8-mer, recovered from the published 9-mer minima) (E-score (dimensionless, -0.5 to 0.5)); Drosophila protein; higher = stronger relative binding preference, active = 0.31 or more
T1 sequence: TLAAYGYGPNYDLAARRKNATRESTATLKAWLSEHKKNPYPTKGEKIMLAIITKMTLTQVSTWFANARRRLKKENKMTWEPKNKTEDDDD
Protocol: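 Protein binding microarray (PBM): in vitro transcribed/translated Caupolican (Caup) homeodomain DNA-binding domain (residues 214-303) applied at 100 nM to a universal 8-mer PBM array (Agilent AMADID 015681). The 8-mer enrichment score (E-score, range -0.5 to 0.5) was computed, and each 9-mer score is the minimum E-score of its two constituent 8-mers. The E-score is the same for a 9-mer and its reverse complement; 0.31 is the stated binding threshold.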

Sequence	PBM E-score
AGAATACA	inactive: 0.257
GATGGCGA	inactive: -0.0291
CGGGAGGA	inactive: -0.179
AGGGCAGG	inactive: -0.156
AAATTTCA	inactive: -0.0347
ACTGGGTA	inactive: -0.0761
ATCTTATG	inactive: 0.0612
ACCTGGCA	inactive: -0.0292
CGTTTCAA	inactive: 0.0328
ATTGGATA	inactive: 0.11
TGCTAACA	inactive: 0.196
AATATCGT	inactive: 0.14
GTAGACCA	inactive: 0.0682
ACCAGTAT	inactive: 0.0627
GGGCACCC	inactive: -0.271
AAGAAACA	inactive: 0.216
TACCACTA	inactive: 0.159
GAGGCCAA	≥ -0.05
CCGATTAC	inactive: 0.0889
AATTGAGA	inactive: -0.0204
CAGGACAG	inactive: 0.141
ATCAAATC	inactive: 0.169
ATTTATAG	inactive: 0.146
AATGATCG	inactive: 0.0217
AGCTTGTC	inactive: 0.261

Sequence	PBM E-score
ACCACGAG	inactive: -0.0396
CGCCTCGC	inactive: -0.21
CGCCCGTA	inactive: -0.195
CATTAGAA	inactive: 0.1
ACTTACTC	inactive: 0.0632
ACTATGAT	inactive: 0.0991
ACATTAGC	inactive: 0.0684
GCACGGCC	inactive: -0.145
ATGGGACA	≥ 0.189
CAAACTGA	inactive: 0.0599
AATGGTAA	inactive: 0.0989
GAAATAAA	inactive: 0.0685
CGCCTGAG	inactive: -0.163
CGACCGCG	inactive: -0.231
ACACACCT	inactive: 0.169
CATAAGTA	inactive: 0.034
CGGACGCA	inactive: -0.198
ATATTACG	inactive: 0.16
CCACCCCA	inactive: -0.035
GTGTGCAA	inactive: 0.03
ACGATGAG	≥ 0.0856
GCATTCAA	inactive: 0.018
CCCTAATA	inactive: -0.014
GCTGTTGA	inactive: 0.0755
CGATCACA	inactive: 0.155

Sequence	PBM E-score
GAGACATA	inactive: 0.215
ACTAGTAC	inactive: 0.265
CTAGACAG	inactive: 0.0443
CGTTCTAG	inactive: 0.0128
CTCGAAAG	inactive: -0.138
ACTCCCAA	inactive: -0.0491
GCCTTTTA	inactive: -0.0859
ACTAAAAA	inactive: 0.036
GATCTTCA	inactive: 0.0402
AATTAAGA	inactive: 0.0984
GAGACCAA	inactive: -0.0656
CTACAGCA	inactive: 0.081
CAATGACA	inactive: 0.293
AGTCCCGC	inactive: -0.198
ACGTTGGA	inactive: 0.0001
GTACTGGA	inactive: 0.164
CAGCCTTC	inactive: -0.297
AAGCTGTC	inactive: 0.0365
GAGTCTGC	inactive: -0.198
GAACGTAA	inactive: 0.0362
CCCTAACA	inactive: 0.0568
AGGCATCG	inactive: -0.159
AGGGACGC	inactive: -0.166
ACCTGCGC	inactive: -0.133
GATTCTCA	inactive: 0.00058

Sequence	PBM E-score
AGAACGTC	inactive: 0.00485
CCAAGTAC	inactive: 0.0484
AGGCCCTC	inactive: -0.232
AACGAGAT	inactive: 0.108
CGTTAAGC	inactive: -0.0697
GGCTTACC	inactive: -0.223
CTTCACTC	inactive: -0.0659
AAAACACT	inactive: 0.0862
ACCTCTTC	inactive: 0.016
GCTATCTA	inactive: 0.0384
AGACTGGC	inactive: -0.142
CTGTTGCA	inactive: 0.112
AAAACGCC	inactive: -0.0844
GAGGGCCA	inactive: -0.227
CATTGTGG	inactive: 0.00422
ATTCATTA	inactive: 0.119
TCCCAGCA	inactive: -0.151
CATCGTTA	inactive: 0.101
GACCTCAC	inactive: -0.092
AGGCCTAC	inactive: -0.129
CGGTTAAC	inactive: 0.0296
ATATCCTG	inactive: 0.0991
AACAGATT	inactive: 0.131
AAGCCGTG	inactive: -0.0835
CGGGTTTC	inactive: -0.056

Sequence	PBM E-score
CGGTATAA	inactive: 0.0588
GTCATGGA	inactive: -0.0262
TAGCCGCA	inactive: -0.157
AAAGGACA	inactive: 0.181
AGAAAACA	inactive: 0.247
CGGAAACC	inactive: -0.0787
ACAAATGC	inactive: 0.138
AACGGGGT	inactive: -0.173
CCCTCAAA	inactive: -0.0958
GTGAGAAC	inactive: -0.00322
CACTGAGC	inactive: -0.0579
AGCAACCC	inactive: -0.127
AGGGATCA	inactive: -0.0397
ATTAATTC	inactive: 0.156
GTAAAGAC	inactive: 0.051
TACACTGA	inactive: 0.207
GCCCTGAC	inactive: 0.0132
ACATTCGT	≥ 0.226
AGTATCGG	inactive: 0.0739
TCACACGA	inactive: 0.132
ATGATTAA	inactive: 0.12
ACAGACTG	inactive: 0.0636
GAAGCGAA	inactive: -0.0567
ATCGGCCG	inactive: -0.227
ACAAAGGA	inactive: 0.131

Sequence	PBM E-score
CTCCAATA	inactive: -0.0437
CAATTAGG	inactive: -0.00295
GACGGTAA	inactive: -0.0932
AGACGTCG	inactive: -0.0683
CACCTATA	inactive: 0.132
AGTTTCTC	inactive: -0.0465
AAATGTAA	inactive: 0.277
GGAAACCA	inactive: -0.1
CAATCAAC	inactive: 0.139
ACTTGTCG	inactive: 0.266
GGCCTGAA	inactive: -0.23
ACTCTACG	inactive: -0.07
ACAGCGTA	inactive: 0.0321
GAAGGACA	inactive: 0.155
AAGGGCAA	inactive: -0.0594
CATTCAGC	inactive: -0.0683
ATACCCCG	inactive: -0.104
GATCAGAA	inactive: -0.00553
AGTGACAG	inactive: 0.136
CTACAAAG	inactive: 0.0968
GTCGCGCA	inactive: -0.0349
CTACCCAA	inactive: -0.027
CATGTCCA	active: 0.384
CATGGACA	inactive: 0.293
CAGCTATG	inactive: 0.0202

Sequence	PBM E-score
CAGTGTTA	inactive: 0.24
ATAATGTA	inactive: 0.273
GCGTGGCA	inactive: -0.205
AACAGGCG	inactive: 0.0552
CCGCTTGA	inactive: -0.109
CAGTCATA	inactive: 0.0563
TAGGGCAA	inactive: -0.0731
GATCGACC	inactive: -0.0614
ACCCGACC	inactive: -0.101
CCAATTGA	inactive: 0.108
CAAAATAC	inactive: 0.222
AGCGATAT	≥ 0.08
GCCCTCCC	inactive: -0.286
ATGCACTA	inactive: 0.077
GTTATTCA	inactive: 0.197
TAAGTGAA	inactive: 0.0877
GGCAAGAC	inactive: -0.106
CGCCACCC	≥ -0.0463
GACCCAAA	inactive: -0.0868
ATCACCTG	inactive: 0.116
CGTACAGC	inactive: 0.00506
CAGATCGG	inactive: -0.116
GCGAGCCA	inactive: -0.166
ACTCTGCA	inactive: -0.0238
GCTAAAGC	inactive: -0.121

Sequence	PBM E-score
CCTAGATC	inactive: -0.0411
ATTATTGG	inactive: -0.0153
GTAGTGTA	inactive: 0.161
CCTCTTTA	inactive: -0.0673
ATGGACAT	inactive: 0.276
AACCCATC	inactive: -0.00243
ACCATTTC	inactive: 0.0677
CCCGTAAG	inactive: -0.0131
GGGTGAGA	inactive: -0.129
CAGAAATG	inactive: 0.139
CGGTTCAG	inactive: -0.146
ACGCGATG	inactive: 0.00867
CCTTTCAA	inactive: -0.0664
CCAGAAGA	inactive: -0.0527
GCGCAGAC	inactive: -0.0987
AAGGCTTC	inactive: -0.117
CTCCCGAC	inactive: -0.126
ACAGCCCC	inactive: -0.157
CACCACAG	inactive: 0.00755
CCCTGACC	inactive: -0.143
ACCAAACA	inactive: 0.191
CGACTCTA	inactive: -0.0694
ATGATAGA	inactive: 0.0767
GAGAGATA	inactive: 0.0472
CCTACAAG	inactive: 0.272

Sequence	PBM E-score
CTCGGTGA	inactive: -0.0741
CTGACGTA	inactive: -0.0256
CCCTCAAG	inactive: -0.16
GTATAGAA	inactive: 0.0915
CAAAGAAC	inactive: 0.0405
CCATCAGA	inactive: -0.105
ACCTCAAC	inactive: 0.0585
ATGAACGG	inactive: 0.0314
AGTGATCG	inactive: 0.0767
ACTGTATA	inactive: 0.143
CTAGCGTC	inactive: -0.0804
GGAGTGGA	inactive: -0.133
GAAAGGCA	inactive: -0.0348
CAACCTAA	inactive: 0.104
CCCTGGTA	inactive: -0.0234
GTCGACGA	inactive: -0.0298
TACGTCCA	inactive: -0.00016
ACGGCGAA	inactive: -0.0619
CATGAAAC	inactive: 0.0872
ATCTGTAC	inactive: 0.247
AAATAACT	inactive: 0.19
AGCTATGG	inactive: -0.0927
CGACACCG	inactive: 0.019
